# Source: the supplement of paper PMC10126150
# Sequences with one replicate were seen in a single cluster, so their values are uncertain.
# Tested on: ATP
# Assay: switch fluorescence ratio, 500 uM ATP over buffer (Cy3 cluster intensity, sum of 5 cycles each) (fold (ratio)); higher = stronger signal-on switching upon ATP binding; sequences stand for … in TCGTCGGCAGCGTCAGATGTGTATAAGAGACAGTTTTTTTTTTTTTTTTTTTTTTTTT…TC
# Conditions: aptamer strand: ATP DNA aptamer (quencher-CACCTGGGGGAGTATTGCGGAGGAAGG + anchor), 100 nM annealed; ATP concentration: 500 uM; one replicate
# Summary of the method: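 After annealing to 100 nM quencher-labelled ATP aptamer, Cy3-labelled switching-strand clusters on a modified Illumina MiSeq flow-cell were imaged in selection buffer. A second image followed after 15 min with 500 uM ATP at 22 °C, and five such buffer/ATP cycles were done, each separated by NaOH stripping and re-annealing. The fluorescence ratio, averaged per switch-domain sequence, is summed target-cycle over summed buffer-cycle Cy3 intensity per cluster, with clusters outside 100-1000 RFU excluded.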
# 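Also: ATP exposure 15 min at 22 °C before imaging.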
row,Sequence,switch fluorescence ratio
1,AGGATGATAG,1.02
2,CACTTGAGGG,1.02
3,CCAGGTTCTT,1.31
4,TCAGGTGCTC,1.94
5,ATGGGTGTCA,0.985
6,GCTATTACAT,1.02
7,ATTGTGGCCG,1.01
8,GCAAATGATA,0.946
9,ACAGTATACA,1.18
10,GCAGCATGGC,1.38
11,CCGGGAGTC,1.34
12,ATAGTTGGTA,0.989
13,ACTTATGGTC,1.04
14,CGCGCAGTCT,0.931
15,AGGGCTTTCA,0.974
16,GAGTTGCTGC,1.03
17,GGACAGCCCC,1.03
18,AAATCTTCTA,1.04
19,AGGTATGGGC,1.03
20,CATGACAA,0.989
21,GGTGTTGAGC,0.986
22,ATGGATCAGC,1.02
23,CACAGCTCCG,1.03

row,Sequence,switch fluorescence ratio
1,TTGAATCTTG,1.01
2,GCTAAAGATA,1.02
3,TTAGATGTTT,0.971
4,CATCGTGAAA,1.01
5,TCGAGTACTA,1.04
6,AGTCTACGTC,1.04
7,GGTATAATCG,0.951
8,GATGTACGAG,1.01
9,ATTATTCGGC,0.996
10,CCGTGATCTC,5.59
11,GATTCAGTGG,1.01
12,CAGCTTTGGT,1.01
13,TCGCTATGCG,0.987
14,ACGATCCTGC,1.06
15,CCATAGCTTG,1.03
16,GCTATACGG,1.39
17,ATAGCTCGGG,0.982
18,AAAGGCTAAC,0.999
19,CGCACTTGGA,1.03
20,GTGTTAAAGA,1.01
21,GGGGAAATGT,0.952
22,GGAAGAGGGA,1.24
23,TGTAAACCAG,0.959

row,Sequence,switch fluorescence ratio
1,TCTCGATCCA,1.05
2,TTCGTTAACG,0.97
3,CCATTCTTCT,1
4,ATGTTGGAAA,0.984
5,ACTCGCTTTA,1.13
6,TAGTAACAGT,1.01
7,GCACTGGAGA,1.03
8,AGGATATGCG,0.963
9,TCGTACGGTC,0.993
10,TCTCCGTTTG,2.04
11,AGGTATCCA,1
12,ACTTCTAC,2.33
13,CTTCGTGCTA,1.08
14,AGTACTGTCC,1.06
15,ACCAGGTGAG,2.71
16,CTCTGGCG,0.994
17,GCTTTACA,1.03
18,CGAAGTCGGA,1.02
19,AAGTGTAGCC,1.03
20,TTACACGTCA,1.19
21,GGATGGGTTA,0.995
22,ATAAGCACC,1.33
23,GGCCGTAGAT,1.02

row,Sequence,switch fluorescence ratio
1,GCTGCTACTT,1.04
2,GTCGGAGCGG,1.03
3,AACCCTCTTG,1.02
4,AAATGGCGAG,0.993
5,TGCAATAACG,1.77
6,ATTAGGCACA,1.14
7,AGTAGGATCC,1.02
8,TGCTTATGAG,1.02
9,TCCCCCGTAT,1.61
10,AGTGGGGGAC,0.985
11,TGCGCAACGA,1.03
12,TATCAGGAAA,0.947
13,AAGCCGATGA,1.05
14,CCTAGATAGC,1.09
15,TACGATTGAA,0.995
16,TGAAAGACAG,1
17,TGGTCTGGTC,1.01
18,GTGATGTAAA,0.983
19,TGAGTTTGCT,0.993
20,GCAGTACAGT,1.1
21,CCAAAAGACT,1.53
22,TAATAATAAA,0.981
23,TTTGAACTCT,1.02

row,Sequence,switch fluorescence ratio
1,CCCAAGTCA,1.03
2,CTGAGCTTCT,1.13
3,AAACGAGTCC,1.08
4,TACGGTTACG,1.4
5,TGCAAATTAA,0.97
6,TACATCAATC,1.06
7,GGAGACAGAG,0.967
8,GGCAGGTCTT,0.989
9,AACGGATAGA,0.97
10,GAATCGGTAC,1.07
11,TGATTGTAAG,1.01
12,CAGTGTCGAA,1.03
13,TCATTGGCC,1.02
14,GCTTAAACCG,1.05
15,TTCGCTCTCT,1.01
16,TGTCCCAATA,1.03
17,CACGAGCCCG,1.06
18,GTGTTACAGC,0.966
19,AAGTGCATC,1.01
20,ATTGGATTAA,0.957
21,AGATCGCGAG,1.02
22,CATCCCCTAG,1.21
23,CGTCACCGCC,1.23

row,Sequence,switch fluorescence ratio
1,ACCCTGAACG,1.16
2,TGCCGTGGAG,1.03
3,CATCGAACGG,1.02
4,AGCAGCTGCA,1.02
5,GACTAGATCA,1.01
6,TGAACGTAAC,1.45
7,TGTGCGGC,1.04
8,TGTATAAGAG,0.969
9,AAGACAGCTT,0.947
10,ATCCATGTCG,1.03
11,TGGTTTCTGT,1.01
12,AAAGGTAGCG,0.994
13,GTTTGACCTG,1
14,AGCCTGTGGG,0.999
15,GGCACTCTCG,1.01
16,AATCGTATCA,0.964
17,CCATCCGGGA,1.33
18,CATTAACAAT,0.978
19,AACATGGTT,1.01
20,TAACGGCAAT,1.86
21,CAACAAGGAG,0.992
22,CTGTGCATAA,1.95
23,AAGGAGTGCG,0.992

row,Sequence,switch fluorescence ratio
1,GCTTGGTCCG,1.03
2,GTTGGTACAA,1.01
3,GGAACGCTGG,1.04
4,GACGGGGTGA,1.01
5,GGTTGACATG,0.964
6,AAGGGACATA,1.02
7,ATACAGAACG,1.25
8,TTTCGTCCA,1.3
9,TTATACCTAC,1.31
10,GTTCGAGGCT,1.05
11,GGTTGTTAAA,0.998
12,GCCGGGGGC,1.07
13,CTGCTTTGAA,1.03
14,CCAGGAATGG,1.12
15,TAAGCATTCA,0.987
16,AAATTTTTCG,0.968
17,TGACAGCGAC,1.35
18,CAGAACGATC,0.996
19,GAATACCTTG,1.04
